According to PMC4336329 (PLoS ONE, 2015):
Out of some 310,000 compounds screened, about 14,000 (4.5%) showed an effect of 50% or more. Effects have a minus sign here. The list shows a part of the results.

Each compound was assayed against human ether-à-go-go-related gene (hERG) potassium channel (human, UniProt Q12809) (assay: primary screen, population patch clamp on CHO cells stably expressing hERG).
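Also: peak tail current of the secondary pulse compared with the same well before compound.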

human ether-à-go-go-related gene (hERG) potassium channel, sequence (Q12809 whole entry, looked up): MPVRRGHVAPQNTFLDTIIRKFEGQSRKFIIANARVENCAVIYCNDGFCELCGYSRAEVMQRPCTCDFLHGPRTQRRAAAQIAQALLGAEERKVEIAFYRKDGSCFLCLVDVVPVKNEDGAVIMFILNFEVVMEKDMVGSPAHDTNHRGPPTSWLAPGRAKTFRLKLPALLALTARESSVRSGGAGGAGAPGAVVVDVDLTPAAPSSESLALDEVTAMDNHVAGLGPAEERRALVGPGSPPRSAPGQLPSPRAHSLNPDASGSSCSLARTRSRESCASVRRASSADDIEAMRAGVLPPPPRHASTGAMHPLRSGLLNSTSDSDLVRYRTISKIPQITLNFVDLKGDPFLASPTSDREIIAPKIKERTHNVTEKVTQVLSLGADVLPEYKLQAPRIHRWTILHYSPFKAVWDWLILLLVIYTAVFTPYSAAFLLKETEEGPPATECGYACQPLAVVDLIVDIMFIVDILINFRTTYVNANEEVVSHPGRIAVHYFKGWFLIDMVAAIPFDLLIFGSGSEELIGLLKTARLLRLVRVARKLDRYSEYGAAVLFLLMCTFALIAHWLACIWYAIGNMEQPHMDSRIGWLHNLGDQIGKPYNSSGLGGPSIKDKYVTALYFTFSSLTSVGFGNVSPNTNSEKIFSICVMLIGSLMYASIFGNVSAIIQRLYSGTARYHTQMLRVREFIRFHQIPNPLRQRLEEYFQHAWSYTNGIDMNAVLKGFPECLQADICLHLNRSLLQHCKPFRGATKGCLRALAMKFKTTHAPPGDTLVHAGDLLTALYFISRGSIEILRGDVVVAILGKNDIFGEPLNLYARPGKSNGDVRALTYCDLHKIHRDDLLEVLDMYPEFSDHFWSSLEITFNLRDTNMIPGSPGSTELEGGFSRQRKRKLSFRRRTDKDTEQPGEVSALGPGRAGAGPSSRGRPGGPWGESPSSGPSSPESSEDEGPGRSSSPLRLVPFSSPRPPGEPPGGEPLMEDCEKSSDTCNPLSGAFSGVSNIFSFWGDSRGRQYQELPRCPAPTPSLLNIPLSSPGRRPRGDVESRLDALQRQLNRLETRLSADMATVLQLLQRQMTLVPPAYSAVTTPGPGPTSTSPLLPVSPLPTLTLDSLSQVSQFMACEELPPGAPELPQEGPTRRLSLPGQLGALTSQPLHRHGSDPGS

| SMILES | hERG current change (%, negative = inhibition) at 10uM [%] |
| --- | --- |
| CC(=C/C(=O)O)/C(=C\c1ccc(Br)o1)C(=O)O | 2.44 |
| Cc1ccc(C(c2nnnn2CS(=O)(=O)c2ccc(C)cc2)N2CCC(C(N)=O)CC2)cc1 (stereo not shown) | -55.1 |
| COc1ccc(-n2nc(C(=O)NCC(=O)N3CCCCCC3)c3ccccc3c2=O)cc1 | 6.24 |
| COc1cc(C(C(=O)NCc2ccccc2)N(Cc2ccco2)C(=O)c2cnccn2)cc(OC)c1OC (stereo not shown) | 19.8 |
| Nc1nnnn1/N=C/c1cccc(O)c1 | 21.2 |
| Cn1c(/C(C#N)=N/O)nc2ccccc21 | 8.27 |
| O=C(O)C(=O)O.O=[N+]([O-])c1ccc(Oc2ccc(C(F)(F)F)cn2)cc1 | -53.9 |
| O=c1c(C(c2ccc(Br)cc2)c2c(O)nc3n(c2=O)CCS3)c(O)nc2n1CCS2 | 14.9 |
| CCCCC(=O)N/N=C/c1c(O)n(Cc2ccc(F)cc2)c(=O)[nH]c1=O | 4.73 |
| O=C(NCCOc1nc(N2CCOCC2)nc(N2CCOCC2)n1)Nc1ccc(Cl)cc1 | 5.21 |
| Cc1cc(Cl)c(S(=O)(=O)Nc2ccc3c(c2)OCO3)cc1OCC(=O)NC1CCCCC1 | 13 |
| c1ccc(CCN2CCN=C2Nc2ccccc2)cc1 | -7.18 |
| Cc1nn(CC2CC2)c(=O)n1-c1ccc(Oc2ccccc2)cc1 | -13.6 |
| COc1ccc(CC2(CO)CCN(Cc3ccncc3)CC2)cc1 | -21.2 |
| O=C1NCCC/C1=N\Nc1ccc(Br)cc1 | 10.7 |
| COC(=O)Nc1cc([N+](=O)[O-])ccc1OC | 28.4 |
| CCOc1ccccc1C(=O)NCCNC(=O)c1ccccc1OCC | -2.01 |
| Cc1cc(C)n2c(SCC(=O)Nc3c(C)n(C)n(-c4ccccc4)c3=O)nnc2n1 | -26.3 |
| COc1ccc(Cc2[nH]n3c(=O)cc(C)nc3c2-c2ccccc2)cc1 | 11.1 |
| COc1ccc(N2C(C)=CS/C2=C(/C#N)c2nnc(N3CCOCC3)n2-c2ccccc2)cc1 | -18.3 |
| Cc1c(C(=O)N2CC3(CC(c4cccc(NC(=O)[C@H]5CCC(=O)N5)c4)=NO3)C[C@@H]2C(N)=O)cc([N+](=O)[O-])cc1[N+](=O)[O-] (stereo partly shown) | 10.5 |
| CCC(CC)CN1C(Nc2ccccc2)=NC[C@@H]1CC(C)C | -58.2 |

| SMILES | hERG current change (%, negative = inhibition) at 10uM [%] |
| --- | --- |
| CCCCNc1ccc(C(CC(N)=O)NC(=O)Cc2ccc(Br)cc2)cc1[N+](=O)[O-] (stereo not shown) | -0.243 |
| Cc1ccc(-c2cc(C(=O)Nc3ccccn3)c3ccccc3n2)o1 | 6.72 |
| CC(=O)OCCOc1nc(N(C)C)nc(N(C)C)n1 | 3.1 |
| O=C(Nc1ccccc1N1CCN(C(=O)c2ccc(Cl)cc2)CC1)c1cc(Br)ccc1Cl | -67.7 |
| O=c1cc(N2CCN(c3ccccc3)CC2)[nH]c(=O)n1-c1ccccc1Cl | -1.13 |
| COc1cc(C(c2sc3nc(C)nn3c2O)N2CCc3ccccc3C2)cc(OC)c1OC (stereo not shown) | -11.5 |
| COCCCNC(=O)c1c(N)n(/N=C/c2cccs2)c2nc3ccccc3nc12 | 2.94 |
| O=C(Cc1ccc(Cl)cc1)NNS(=O)(=O)c1ccc([N+](=O)[O-])cc1 | 7.22 |
| CCOc1ccc(OCC)c(S(=O)(=O)N2CCCCC2C)c1 (stereo not shown) | -52.2 |
| CCOC(=O)CC(N)c1ccc(OC)cc1.Cl (stereo not shown) | 7.93 |
| COc1ccc(OC)c(S(=O)(=O)N2CCCC(C(=O)N3CCCC3)C2)c1 (stereo not shown) | -0.894 |
| Cc1ccc(N(CC(=O)NC2CC3CCC2C3)S(C)(=O)=O)cc1C (stereo not shown) | -6.97 |
| O=c1c2ccccc2sn1-c1ccccc1 | 14.6 |
| Cn1cnc([N+](=O)[O-])c1Oc1ccccc1 | 14.2 |
| COc1ccc(CC(NC(C)=O)C(=O)NC2CCN(C(=O)NCc3ccccc3)CC2)cc1OC (stereo not shown) | 2.78 |
| Cc1ccc(N(C(=O)CNC(=O)c2ccco2)C(C(=O)NC2CCCC2)c2cccnc2)cc1 (stereo not shown) | -18.9 |
| Cc1nn(C(C)C)c(C)c1CN1CCCC(C(=O)c2cccc(OC(C)C)c2)C1 (stereo not shown) | -39.6 |
| O=C(COc1ccc(Cl)cc1)N1CCN(c2ncccn2)CC1 | -9.42 |
| CCN(CC(=O)NC1CCS(=O)(=O)C1)C(C)C(=O)Nc1ccc(F)cc1 (stereo not shown) | 0.961 |
| CC1(C)Cc2ccccc2C(Nn2cnnc2)=N1 | 6.66 |
| Cc1cc(-c2onc(C)c2C(=O)Oc2ccc(Cl)cc2)no1 | -2.56 |
| Cc1ccn(C(C)CC(=O)N2CCc3ccccc32)n1 (stereo not shown) | 12.5 |

| SMILES | hERG current change (%, negative = inhibition) at 10uM [%] |
| --- | --- |
| COc1cc(OC)c(CN2CCc3c([nH]c4ccccc34)C2)cc1Br | -54.9 |
| Nc1c(S(=O)(=O)c2cccc(Cl)c2)c2nc3ccccc3nc2n1/N=C/c1ccc(O)c(O)c1 | 1.86 |
| Cc1ccc(C)c(N2CCN(S(=O)(=O)c3cc4c(cc3C)NC(=O)CO4)CC2)c1 | 12.7 |
| COc1ccc(C)cc1N(CC(N)=O)S(=O)(=O)c1ccc(C)cc1 | -9.11 |
| O=C(OCN1C(=O)c2ccccc2C1=O)c1ccccc1 | 4.86 |
| Cc1ccc(OCC(=O)Nc2ccc(NC(=O)c3ccccc3)c(C)c2)cc1 | 10.4 |
| COc1ccc(NC(=O)CCN2C(=O)C3C4CCC(C4)C3C2=O)cc1 (stereo not shown) | -3.58 |
| Cn1cccc1/C=N/NC(N)=S | 6.31 |
| COc1ccc(C(=O)COC(=O)Cn2c(C)csc2=O)c(OC)c1 | -13.9 |
| CS(=O)(=O)NCCCCNc1ccc(C(F)(F)F)cc1[N+](=O)[O-] | -56.8 |
| Cn1c(C(=O)N2CCC(C(=O)N3CCC4(CC3)OCCO4)CC2)cc2sccc21 | -20.7 |
| Cc1oc(-c2ccccc2)cc1C(N)=O | 17.2 |
| O=[N+]([O-])c1ccccc1CN1CC=C(c2ccc(F)cc2)CC1 | -12.8 |
| O=C1CNc2ccc(C(=O)N3CCN(c4ccccn4)CC3)cc2N1 | 3.91 |
| COCCn1c(=NC(=O)CSCC(=O)Nc2cc(C)on2)sc2cc(C(=O)OC)ccc21 | -9.3 |
| CCOC(=O)N1CCN(C(=O)c2cc(Cl)c(Cl)cc2C(=O)O)CC1 | 12.5 |
| CC1=NOC(=O)/C1=C\c1ccccc1 | 15.5 |
| COC(=O)CCCCCc1ccc(C(C)=O)s1 | 3.72 |
| COC(=O)c1cccc(CN2C(=O)SC(Nc3ccccc3)C2=O)c1 (stereo not shown) | -27.2 |
| O=C(NC(Cc1ccccc1)C(=O)N1CCCCCC1)c1ccccc1 (stereo not shown) | -9.06 |
| O=C(COC(=O)c1ccc(Cl)nc1)Nc1c(Cl)cccc1C(F)(F)F | 15 |
| Cc1ccc(C)c(N2CCN(C(=O)CCS(=O)(=O)c3cccc4nonc34)CC2)c1 | -25.4 |

| SMILES | hERG current change (%, negative = inhibition) at 10uM [%] |
| --- | --- |
| CC(C)(O)CCCC(C)(O)c1ccc(C(=O)O)cc1O (stereo not shown) | 10.7 |
| Cc1nc(SCC(=O)Nc2c(C)nn(C)c2C)c2cnn(-c3ccccc3)c2n1 | 14 |
| Cn1c(CN2CCCC2)nc2cc(NC(=O)COc3ccc([N+](=O)[O-])cc3)ccc21 | -38.6 |
| O=C(NCCCO)/C(=C\c1cn(-c2ccccc2)nc1-c1cccnc1)NC(=O)c1ccccc1 | 0.796 |
| O=C(Cc1ccc(-c2ccccc2)cc1)NC(c1ccccc1)c1ccccc1 | 7.88 |
| COc1ccc(C2=NC(CO)(CO)CO2)cc1 | 19 |
| COc1cccc(NC(=O)CC(C)=O)c1 | 10.9 |
| COC(=O)C1=C(c2cc3ccccc3s2)C[C@@H]2CC[C@H]1N2C(=O)NCCNC(C)=O | 2.06 |
| CCN(CC)S(=O)(=O)c1ccc(N=Nc2cc(C)cc(Br)c2O)cc1 | 4.49 |
| c1ccc(OCc2ccc(CCCN3CCOCC3)cc2)cc1 | -46 |
| Cc1csc(NC(=O)c2c(O)c3c(n(CC(C)C)c2=O)CCCC3)n1 | 0.0557 |
| Cc1ccccc1OCCCC(=O)NC1CCCCC1 | 7.72 |
| COc1ccccc1NS(=O)(=O)c1cccc(N2CC(O)=C(c3ccccc3)C2=N)c1 | -16.1 |
| NC(=O)N/N=C/c1ccccc1OCc1cccc2ccccc12 | -4.83 |
| O=c1c2ccccc2ncn1CCCOc1ccccc1[N+](=O)[O-] | -39 |
| Clc1ccc(N2CCCCCC2)nn1 | 4.93 |
| CCOC(=O)CSc1nc(C)cc(C)c1C(N)=O | 33.7 |
| Clc1ccccc1-c1nc(/C=N/N2CCOCC2)c2ccccn12 | 22.9 |
| Cc1ccc(NC(=O)c2ccccc2F)nc1 | -5.56 |
| C=CCc1cc(C=C2C(=O)N(C)C(=O)N(C)C2=O)cc(OCC)c1OCc1ccccc1 | 15.2 |
| C=C1c2ccccc2NC(=O)N1c1ccc(C)cc1 | 4.59 |
| CCOC(=O)N1CCN(S(=O)(=O)c2ccc3[nH]cc(C(=O)O)c(=O)c3c2)CC1 | 3.22 |
